The record followed here is US20250326840A1.

In the experiment the target is SIRPα on human monocyte-derived macrophages (human), P78324. In words: cell-based or functional assay.

B1: QP026249 (KWAR23 analog) (antibody, human IgG4 S228P, kappa)
heavy: EVQLQQSGAELVKPGASVKLSCTASGFNIKDYYIHWVQQRTEQGLEWIGRIDPEDGETKYAPKFQDKATITADTSSNTAYLHLSSLTSEDTAVYYCARWGAYWGQGTLVTVSSASTKGPSVFPLAPCSRSTSESTAALGCLVKDYFPEPVTVSWNSGALTSGVHTFPAVLQSSGLYSLSSVVTVPSSSLGTKTYTCNVDHKPSNTKVDKRV[no letters for human IgG4 Fc with S228P (EU numbers)]
light: QIVLTQSPAIMSASPGEKVTLTCSASSSVSSSYLYWYQQKPGSSPKLWIYSTSNLASGVPARFSGSGSGTSYSLTISSMEAEDAASYFCHQWSSYPRTFGAGTKLELKRTVAAPSVFIFPPSDEQLKSGTASVVCLLNNFYPREAKVQWKVDNALQSGNSQESVTEQDSKDSTYSLSSTLTLSKADYEKHKVYACEVTHQGLSSPVTKSFNRGEC
As to B1, the EC50 of Rituxan-dependent ADCP in combination, donor P121031405C was 0.0176 µg/mL and the maximum phagocytic percentage, Rituxan-dependent ADCP of Raji cells, donor P121031405C is 30.1%.

B2: QP37503751 (1H9 analog) (antibody, human IgG1, kappa)
heavy: QVQLVQSGAEVKKPGASVKVSCKASGYTFTSYWITWVKQAPGQGLEWIGDIYPGSGSTNHIEKFKSKATLTVDTSISTAYMELSRLRSDDTAVYYCATGYGSSYGYFDYWGQGTLVTVSS[no letters for human IgG1 constant region with changes]
light: DIQMTQSPSSLSASVGDRVTITCRASENIYSYLAWYQQKPGKAPKLLIYTAKTLAEGVPSRFSGSGSGTDFTLTISSLQPEDFATYYCQHQYGPPFTFGQGTKLEIKRTVAAPSVFIFPPSDEQLKSGTASVVCLLNNFYPREAKVQWKVDNALQSGNSQESVTEQDSKDSTYSLSSTLTLSKADYEKHKVYACEVTHQGLSSPVTKSFNRGEC
For the molecule B2, the EC50 of Rituxan-dependent ADCP in combination, donor P121031405C was 0.0149 µg/mL and the maximum phagocytic percentage, Rituxan-dependent ADCP of Raji cells, donor P121031405C was 28.1%.

B3: Q-1801 (bispecific antibody, human IgG1, kappa, L234A L235A)
heavy: QVQLVQSGAEVKKPGASVKVSCKASGYTFTNYWINWVRQAPGQGLEWIAMIDPSDSETHYNQIFKDRATLTTDTSTSTAYMELRSLRSDDTAVYYCAMDYGSLYAMDYWGRGTLVTVSSASTKGPSVFPLAPSSKSTSGGTAALGCLVKDYFPEPVTVSWNSGALTSGVHTFPAVLQSSGLYSLSSVVTVPSSSLGTQTYICNVNHKPSNTKVDKKV[no letters for human IgG1 Fc with L234A L235A K338A (EU numbers)]GGGGSGGGGSGGGGSGGGGSEVQLLESGGGLVQPGGSLRLSCAASGFTLDDYAIGWFRQAPGKGREGVSCISKSGETTFFVESVKDRFTISRDNSKNTLYLQMNSLRAEDTAVYYCATGSWCTVGSMSRQFYRQFFHSWGQGTLVTVSS
light: DIVLTQSPDSLAVSLGERATINCRASQSVRSSGYNWIFWYQQKPGQPPKLLIYLASNRDSGVPDRFSGSGSGTDFTLTISSLQAEDVAVYYCQHSRELPTFGQGTKLEIKRTVAAPSVFIFPPSDEQLKSGTASVVCLLNNFYPREAKVQWKVDNALQSGNSQESVTEQDSKDSTYSLSSTLTLSKADYEKHKVYACEVTHQGLSSPVTKSFNRGEC
As for B3, the EC50 of Rituxan-dependent ADCP in combination, donor P121031405C turned out to be 0.0119 µg/mL and the maximum phagocytic percentage, Rituxan-dependent ADCP of Raji cells, donor P121031405C came to 32.4%.

B4: QP32700279 (antibody, human IgG1, kappa, L234A L235A)
heavy: QVQLVQSGAEVKKPGASVKVSCKASGYTFTNYWINWVRQAPGQGLEWIAMIDPSDSETHYNQIFKDRATLTTDTSTSTAYMELRSLRSDDTAVYYCAMDYGSLYAMDYWGRGTLVTVSSASTKGPSVFPLAPSSKSTSGGTAALGCLVKDYFPEPVTVSWNSGALTSGVHTFPAVLQSSGLYSLSSVVTVPSSSLGTQTYICNVNHKPSNTKVDKKV[no letters for human IgG1 Fc with L234A L235A K338A (EU numbers)]
light: DIVLTQSPDSLAVSLGERATINCRASQSVRSSGYNWIFWYQQKPGQPPKLLIYLASNRDSGVPDRFSGSGSGTDFTLTISSLQAEDVAVYYCQHSRELPTFGQGTKLEIKRTVAAPSVFIFPPSDEQLKSGTASVVCLLNNFYPREAKVQWKVDNALQSGNSQESVTEQDSKDSTYSLSSTLTLSKADYEKHKVYACEVTHQGLSSPVTKSFNRGEC
B4: the EC50 of Rituxan-dependent ADCP in combination, donor P121031405C was determined as 0.013 µg/mL and the maximum phagocytic percentage, Rituxan-dependent ADCP of Raji cells, donor P121031405C was 32.1%.
